Results as given in PubChem BioAssay AID1240 (Sanford-Burnham Center for Chemical Genomics, 2008).
The whole screen tested about 50,000 compounds, of which about 800 (1.6%) showed an effect of 50% or more. This is one part of the list.

Target: Bcl-2-like protein 10 (Homo sapiens) (UniProt Q9HD36)
Experiment: Phenotype converters, Bcl-B/TR3 peptide binding displacement, primary biochemical FP (AID 1240);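 note: 0% = Bcl-B with tracer peptide and DMSO and 100% = tracer peptide lacking Bcl-B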
Conditions: GST-Bcl-B / FITC-TR3 peptide fluorescence polarization; stronger effect = higher value; compound at 3.75 mg/L

Chain of UniProt Q9HD36 (Q9HD36 whole entry, looked up): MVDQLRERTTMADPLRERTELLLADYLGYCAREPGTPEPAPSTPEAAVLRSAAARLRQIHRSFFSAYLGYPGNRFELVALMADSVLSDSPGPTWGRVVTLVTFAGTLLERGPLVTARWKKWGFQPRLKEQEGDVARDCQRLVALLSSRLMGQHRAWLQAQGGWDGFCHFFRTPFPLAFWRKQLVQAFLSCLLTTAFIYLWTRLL

Row | SMILES | displacement [%]
1 | CN(C)c1ccc(/C=C2\C(=O)NC(=O)N(c3ccccc3Cl)C2=O)cc1 | 9.7
2 | CC12CCC3C(CC=C4CC(O)CCC43C)C1C/C(=C\c1ccc(OC(F)F)cc1)C2=O (centres undefined) | -20.9
3 | CCOC(=O)c1c(C)n(CC(C)C)c2ccc(O)cc12 | 1.1
4 | Cc1ccc(C)c(COc2cc(C)cc3oc(=O)c4c(c23)CCC4)c1 | 6.4
5 | CCC(C)N1CCN(Cc2ccccc2Br)CC1 (centres undefined) | 5.8
6 | C=CCN1C(=O)/C(=C\c2cccn2-c2ccc([N+](=O)[O-])cc2)C(=O)NC1=S | 45.2
7 | O=C(COc1ccc2ccccc2c1)N1CCN(Cc2ccc([N+](=O)[O-])cc2)CC1 | 13.8
8 | Cc1cc(C=C2C(=O)NC(=O)NC2=O)c(C)n1C | 2.4
9 | COc1ccc(-c2ccc(C=C3C(=O)NC(=S)NC3=O)o2)c([N+](=O)[O-])c1 | 34.1
10 | Nc1ccc(Br)cc1C(=O)c1ccc(F)cc1 | -18.1
11 | N#C/C(=C\c1ccccc1)C(=O)Nc1ccc([N+](=O)[O-])cc1C(=O)c1ccccc1 | -15.8
12 | Cc1ccc(-n2c(SCCN3CCOCC3)nc3ccccc3c2=O)cc1 | 3
13 | O=C(COc1ccccc1)N1CCN(Cc2ccc([N+](=O)[O-])cc2)CC1 | 4.4
14 | Cc1nc2ccccc2c(=O)n1-c1ccc(-c2ccccc2)cc1 | 2.1
15 | CCCCn1c(=O)c(C(=O)Nc2ccc(Br)cc2)c(O)c2ccccc21 | 12.4
16 | O=C(N/N=C1/CN2CCC1CC2)c1ccc(O)cc1 | 17.8
17 | Cc1cc(C=C2C(=O)NC(=S)NC2=O)c(C)n1C | 6.6
18 | C=CCSc1nc2ccccc2c(=O)n1-c1cccc(C)c1 | -3.4
19 | CCCCn1c(=O)c(C(=O)Nc2cccc(O)c2)c(O)c2ccccc21 | -2.3
20 | COc1cccc(CNCCc2ccccc2F)c1OC | 9.6
21 | c1cc(CN2CCN(C3C4CC5CC(C4)CC3C5)CC2)ccn1 (centres undefined) | -7.9
22 | Cc1c(Cl)c([N+](=O)[O-])nn1CC(=O)Nc1ccc(Cl)cc1C(=O)c1ccccc1 | 5.3

Row | SMILES | displacement [%]
23 | CN1CCN(c2c(Cl)cccc2[N+](=O)[O-])CC1 | 3.8
24 | O=C1/C(=C/c2ccccc2O)N2CCC1CC2 | 11.6
25 | Cc1cc(C)cc(N2C(=O)NC(=O)/C(=C\c3cc(C)n(C)c3C)C2=O)c1 | 90.5
26 | COc1ccc(Br)cc1CN1CCN(C(C)C)CC1 | -17.1
27 | Cn1cccc1CN1CCN(C(=O)COc2ccccc2)CC1 | -12.3
28 | COc1ccc(CN2CCN(Cc3ccccc3Br)CC2)cc1 | 3.8
29 | CSc1ccc(CN2CCN(C(=O)COc3ccc(Cl)cc3)CC2)cc1 | 14.5
30 | O=[N+]([O-])c1ccc(NCCOc2ccccc2F)c2cccnc12 | -2.1
31 | CN1C(=O)NC(=O)/C(=C/c2cc(Br)cc(Cl)c2O)C1=O | -7.2
32 | O=C1NC(=O)N(c2ccccc2)C(=O)/C1=C/c1ccoc1 | 15.5
33 | O=C1NC(=S)NC(=O)C1=Cc1ccccc1OS(=O)(=O)c1ccc2ccccc2c1 | 1.4
34 | COC(=O)c1ccc(-c2ccc(C=C3C(=O)NC(=S)NC3=O)o2)cc1 | -1.1
35 | CN=C1CN=C(c2ccccc2)c2cc(Cl)ccc2N1 | -5.3
36 | CCC1(CC)C(=O)NC(=O)N(C(=O)c2ccccc2Br)C1=O | 11.2
37 | C1CCC2(C1)NN2CCN1NC12CCCC2 (centres undefined) | 4.1
38 | CC1CN(c2ccc([N+](=O)[O-])cc2)CCN1 (centres undefined) | 0.2
39 | COc1cccc(CN(CCc2ccc3c(c2)OCO3)Cc2cccc(OC)c2)c1 | 2.5
40 | Clc1ccccc1CNCCc1c[nH]c2ccccc12 | 2
41 | COc1ccc(CN2CCN(Cc3cccc(C)c3)CC2)cc1Br | 1.1
42 | Cc1nc2ccccc2c(=O)n1-c1ccccc1O | -0.7
43 | O=c1c2ccccc2nc(/C=C/c2ccccc2[N+](=O)[O-])n1-c1cccc(O)c1 | -4
44 | O/N=C1/C(=C/c2ccccc2)N2CCC1CC2 | 10.6

Row | SMILES | displacement [%]
45 | O=c1c2ccccc2nc(-c2ccccc2)n1-c1ccccc1Br | -9.3
46 | CCC(CC)N1CCN(Cc2cc(Br)ccc2OC)CC1 | -7.5
47 | COc1ccccc1-n1c(/C=C/c2ccco2)nc2ccccc2c1=O | -36
48 | COc1ccc(N2C(=O)NC(=O)/C(=C/c3cn(CC(=O)Nc4ccccc4)c4ccccc34)C2=O)cc1 | 88.8
49 | CCC(C)N1CCN(Cc2cc(OC)c(OC)c(OC)c2)CC1 (centres undefined) | -11.3
50 | Cc1ccc(N2C(=O)NC(=O)/C(=C\c3ccc(-c4ccc(Cl)c(C(=O)O)c4)o3)C2=O)cc1 | 6.3
51 | Cc1cccc(CN2CCN(C(=O)COc3ccc(Cl)cc3)CC2)c1 | -4.6
52 | CCN(CC)CCNC(=O)CN1CCCC1=O | 2
53 | Cc1ccccc1N1C(=O)NC(=O)/C(=C\c2cc(C)n(C)c2C)C1=O | 12.6
54 | Cc1ccccc1C=C1C(=O)NC(=S)NC1=O | 12.8
55 | CCOC(=O)CCOCC#CCN(CC)CC | 1.2
56 | C=CCn1c(C)c(C=C2C(=O)NC(=S)NC2=O)c2ccccc21 | 29
57 | CCOc1ccc2ccccc2c1/C=C1\C(=O)NC(=S)N(c2ccccc2)C1=O | 20.2
58 | O=[N+]([O-])c1ccc(NCC(O)c2ccccc2)c2ncccc12 (centres undefined) | 14.7
59 | CC(=O)C(C)Oc1cc(C)cc2oc(=O)c3c(c12)CCCC3 (centres undefined) | -3.2
60 | O/N=C1\C2CCN(CC2)C1Cc1ccccc1O (centres undefined) | -11.6
61 | O=c1c2ccccc2nc(/C=C/c2ccccc2[N+](=O)[O-])n1-c1ccccc1O | 5.6
62 | O=c1c2ccccc2nc(-c2ccc(Cl)cc2Cl)n1-c1nccs1 | -19.5
63 | O=C(CN1CCCC1=O)NCc1ccccc1 | 7.5
64 | O=C(COc1ccc(Cl)cc1)N1CCN(Cc2cccc3ccccc23)CC1 | 12.7
